Measurements as given in ChEMBL document CHEMBL1201862, “PubChem BioAssay data set” (2004).

These molecules were tested on NCI-H322M (assay: NCI anticancer screen, dose series, 48 h).

Structure (SMILES)	GI50
CCN(CC)CCN1CCc2c([nH]c3ccccc23)C1c1cccnc1 (stereo unspecified)	inactive: > 100 µM
O=C1NCCCNCCCNCCCNC(=O)c2cccc1n2	inactive: > 100 µM
CC[C@]1(Cc2ccc(OC)c(OC)c2)C=[N+]([O-])O[C@H](OC2CCCC2(c2ccccc2)c2ccccc2)[C@@H]1OC(C)=O (stereo partly specified)	active: 0.403 µM
COC(=O)C(NC(=O)C(CC(=O)OCc1ccccc1)NC(=O)OCc1ccccc1)C1CCCCC1 (stereo unspecified) (Cbz-Asp(OBn)-[Chg]-OMe; configuration not given here)	inactive: > 100 µM
Cc1[nH]c(=O)[nH]c(=O)c1/C=C/C(=O)NC(CO)C[S+]([O-])C[S+](C)[O-] (stereo unspecified)	inactive: 11.4 µM
OCC12C3C4C1C1C2C3C41CO (stereo unspecified)	inactive: > 100 µM
CC(C)(C)OC(=O)NC(Cc1ccc(OCc2ccccc2)cn1)C(=O)N1CCCC1 (stereo unspecified)	inactive: > 100 µM
CC(=O)OC1COC(N2CCc3cc([N+](=O)[O-])ccc32)C(OC(C)=O)C1OC(C)=O (stereo unspecified)	inactive: > 100 µM
CSc1c(C#N)c(O)n(-c2ccc(C)cc2)c(=O)c1C#N	inactive: > 100 µM
COc1ccc([S+]([O-])Cc2cc(OC)ccc2OC)cc1 (stereo unspecified)	inactive: > 100 µM
CC1(C)[C@@H]2CC[C@@]1(C)[C@H](O)[C@@H]2SCc1ccccc1	inactive: 18.2 µM
Cc1ccccc1C(C#N)C(=O)C(=O)Nc1nc([N+](=O)[O-])cs1 (stereo unspecified)	inactive: > 100 µM
NS(=O)(=O)c1ccc(/N=N/c2cc3ccccc3c(C(=O)O)c2O)cc1	inactive: > 58.2 µM
O=c1ccc(=O)c2c(=O)c3ccccc3c(=O)c1=2	inactive: 85.9 µM
CCc1cc2c(cc1O)CC[C@@H]1[C@@H]2CC[C@]2(C)[C@@H](O)CC[C@@H]12	inactive: 10.4 µM
O=C(Cc1ccccc1)NN1C(=O)/C(=C\c2ccc(O)cc2)S/C1=N\c1ccccc1	inactive: > 100 µM
Cc1ccc(Cc2c(=O)[nH]nc3ccccc23)cc1	inactive: 71.1 µM
N#CC(C(=O)CCCC(=O)Nc1ccccc1[N+](=O)[O-])c1c(Cl)cccc1Cl (stereo unspecified)	inactive: > 100 µM
O=C(O)C1CC2C3CCC2C1C3=O (stereo unspecified)	inactive: > 100 µM
CCN1CCC(C)OP1(=O)Cc1ccccc1 (stereo unspecified)	inactive: > 100 µM
O=c1cc(NNc2ccccc2)[nH]c(=S)[nH]1	inactive: > 100 µM
N#Cc1c(-c2ccc([N+](=O)[O-])cc2)c2c([nH]c1=O)-c1ccccc1CCC2	inactive: > 100 µM
O=c1[nH]c(=S)c2cc3c(=S)[nH]c(=O)n(CCO)c3nc2n1CCO	inactive: > 100 µM

Structure (SMILES)	GI50
Oc1ccc(-c2ccccc2)nn1	inactive: > 100 µM
Cc1cc(N(CCC#N)CCC#N)ccc1/C=N/NC(=O)c1cc(Cl)ccc1O	inactive: > 100 µM
CC(O)C(NC(=O)C(CS)NC(=O)C(CO)NC(=O)C(CCCCN)NC(=O)C(Cc1c[nH]c2ccccc12)NC(=O)C(Cc1ccc(O)cc1)NC(=O)C(CS)NC(=O)C(N)Cc1ccccc1)C(N)=O (stereo unspecified)	inactive: > 25 µM
S=C(Nc1cccc(Cl)c1)Nc1ccccn1	inactive: > 100 µM
CCOc1ccc2nc(NC(=O)C(=O)C(C(=O)c3ccccc3-c3ccccc3)C3OC(=O)c4ccccc43)sc2c1 (stereo unspecified)	inactive: 19.7 µM
CN(C)CC1CCC/C(=C\c2ccc(N(C)C)cc2)C1=O (stereo unspecified)	inactive: 17.8 µM
Cc1c(CNc2ccc(C(=O)NC(CC(=O)O)C(=O)O)cc2)ccc2nc(N)nc(N)c12 (stereo unspecified)	active: 0.247 µM
O=S(=O)(Sc1ccc(Cl)cc1)c1ccc(Cl)cc1	inactive: 23.8 µM
c1ccc(-c2cn3c(nc4ccccc43)c(-c3ccccc3)n2)cc1	inactive: > 76.2 µM
COc1ccc(S(=O)(=O)O)cc1-n1nc(C(=O)Nc2ccccc2)n[n+]1-c1cc(S(=O)(=O)[O-])ccc1OC	inactive: > 100 µM
COc1ccc2c3c([nH]c2c1CC=C(C)C)C(=O)C=C(C)C3=O	inactive: > 25 µM
Cc1c[nH]c(C(=O)O)c1-c1cccn1-c1ccc(Cl)cc1[N+](=O)[O-]	inactive: > 100 µM
OC1NC2CC3NC(O)C(O)NC3CC2NC1O (stereo unspecified)	inactive: > 100 µM
O=c1/c(=C/c2ccc([N+](=O)[O-])o2)sc2n1[C@@H](c1ccc3c(c1)OCO3)C=C(c1cc(F)c(Cl)cc1Cl)N=2	inactive: 38.3 µM
CC(C)(C)OC(=O)NCCC1CNc2ccccc21 (stereo unspecified)	inactive: > 100 µM
C/C=C1\NC(=O)[C@H]2CSSCCC=C[C@H](CC(=O)N[C@H](C(C)C)C(=O)N2)OC(=O)[C@H](C(C)C)NC1=O	active: 0.000212 µM
CC1CN(CCO)CCN1c1ccccc1 (stereo unspecified)	inactive: > 100 µM
CCN(CC)CCCC(C)Nc1cc(-c2ccccc2)nc2cc(OC)ccc12 (stereo unspecified)	inactive: 5.56 µM
c1ccc2c(Nc3ncco3)cccc2c1	inactive: > 10 µM
CC(CC(C)(C)[N+](C)(C)C)[N+](C)(C)C (stereo unspecified)	inactive: > 100 µM
Nc1nc(-c2ccccc2)nc2c1[n+]([O-])c1ccccc1[n+]2[O-]	inactive: > 100 µM
Nc1cc2ncnn2c(SCC(=O)N/N=C/C(Br)=C\c2ccccc2)n1	inactive: 22.1 µM
CCOC(=O)c1ccc(Nc2nc3cc(C(F)(F)F)ccc3nc2-c2ccccc2)cc1	inactive: > 100 µM

Structure (SMILES)	GI50
CSc1nc2ccccc2c(=O)n1/N=C1\C(=O)N(CN2CCOCC2)c2ccc(Cl)cc21	inactive: 24.1 µM
COc1ccc(CN[C@H]2CCc3cc(OC)c(OC)c(OC)c3-c3ccc(SC)c(=O)cc32)c(OC)c1OC	active: 0.0279 µM
C(=N/c1ccccc1C1SCCCS1)/c1ccccc1	inactive: > 100 µM
Cc1cnc2[nH]c(-c3cccc(F)c3)cc(=O)c2c1	active: 0.0502 µM
Cc1ccc(S(=O)(=O)NCc2cccc([N+](=O)[O-])c2)cc1	inactive: > 100 µM
CCN(CC)C(c1ccc(N(C)C)cc1)C(c1ccc(N(C)C)cc1)N(CC)CC (stereo unspecified)	inactive: > 72.9 µM
Cc1cc(C)c(S(=O)(=O)N(CCCCCN)OCCCN)c(C)c1	inactive: 18.2 µM
COC(=O)Cc1cc(=O)n2c([nH]c3ccccc32)c1C#N	inactive: > 100 µM
CSC(SC)(C(=O)O)c1cc(-c2c(Cl)cccc2Cl)no1	inactive: 21.9 µM
C/C(=N\N=C(/S)N1CC2CCC(CC2)C1)c1cccc[n+]1[O-]	inactive: 9.16 µM
COc1ccc(C2SCC(=O)N2c2ccc(-c3ccc(-n4c(-c5ccccc5)nc5ccccc5c4=O)cc3)cc2)cc1 (stereo unspecified)	inactive: 44.5 µM
CC1CC[C@@]2(OC1)OC1C[C@H]3[C@@H]4CC=C5CC(OC6OC(CO)C(OC7OC(CO)C(O)C(OC8OCC(O)C(O)C8O)C7OC7OC(CO)C(OC8OC(C)C(OC9OC(C)C(O)C(O)C9O)C(O)C8O)C(O)C7O)C(O)C6O)CCC5(C)[C@H]4CCC3(C)C1[C@@H]2C (stereo partly specified)	inactive: 5.37 µM
O=C1CC(O)C=C1Nc1ccc(Cl)cc1 (stereo unspecified)	inactive: 62.7 µM
Nc1ncnc2c1ncn2C1(CO)OC(CO)C(O)C1O (stereo unspecified)	inactive: > 100 µM
O=C1/C(=C/c2ccccc2)CCCC1CN1CCCCC1 (stereo unspecified)	inactive: 15.6 µM
COc1cc(C(SCc2ccccc2)SCc2ccccc2)ccc1O	inactive: > 10 µM
NC1CC(N)c2c(Br)sc(Br)c21 (stereo unspecified)	inactive: > 100 µM
CCCCCCCCCCCCN(O)C(=O)c1ccccc1	inactive: 38.4 µM
CN(C(=O)C12C3C4C1C1C4(C(=O)C45C6C7C4C4C5C6C74C)C3C12C)C(C)(C)C (stereo unspecified)	inactive: > 100 µM
COc1ccc(/C=C2/CSCC3=C2N=C(S)NC3c2ccc(OC)c(OC)c2OC)c(OC)c1OC (stereo unspecified)	inactive: 21.2 µM
CC(C)NC(=O)OCC[S+]([O-])c1c(Cl)c(Cl)nn1C (stereo unspecified)	inactive: > 100 µM
Cc1cc(Cl)ccc1NC(=O)C1C(=O)C(=O)N(c2ccc(Cl)cc2C)C1=O (stereo unspecified)	inactive: > 100 µM
C=CS(=O)(=O)c1c2cc(OC)ccc2nc2ccc(OC)cc12	inactive: 14.9 µM

Structure (SMILES)	GI50
CC1=C(SC#N)S(=O)(=O)N(c2ccccc2)C(C)=C1SC#N	inactive: 28.1 µM
Clc1cccc(-c2nnc(-c3nn(-c4ccccc4)c4nc5ccccc5nc34)o2)c1	inactive: > 100 µM
CC12CC1C(c1cccc([N+](=O)[O-])c1)(c1cccc([N+](=O)[O-])c1)N=N2 (stereo unspecified)	inactive: > 100 µM
CC1(C)CCCCCC(O)C(O)CCC(C)(C)C1=O (stereo unspecified)	inactive: > 100 µM
COC(=O)c1onc(C2OC(C)(C)OC2C(O)COC(c2ccccc2)(c2ccccc2)c2ccccc2)c1C(=O)OC (stereo unspecified)	inactive: > 100 µM
Nc1ncnc2c1ccn2C/C=C\CO	inactive: > 100 µM
CC1=C2CC(C)(C)/C=C\C(=O)/C(C)=C\C3=C[C@H](C)C[C@]3(O2)C1=O	inactive: 4.78 µM
COc1cc(/C=C2/CCS(=O)(=O)c3ccc(C)cc3C2=O)cc(OC)c1OC	inactive: 3.83 µM
O=C1C[C@H](c2ccc(O)c(O)c2)Oc2cc(O)cc(O)c21	inactive: > 100 µM
COc1ccc(/C=C(\Cl)c2ccc(OC)c(OC)c2)cc1OC	inactive: > 100 µM
O=C(O)c1cc2c(ncc3c(=O)n(-c4ccccc4)[nH]c32)s1	inactive: > 100 µM
O=c1n(/N=C/c2ccccc2)c(=O)n2n1C1C=CC2CC1	inactive: > 100 µM
O=C1/C(=C\c2ccc(-c3ccc(Cl)cc3Cl)o2)SC2NC(COc3ccc(Cl)cc3)=NN12 (stereo unspecified)	inactive: > 100 µM
COC(=O)C1(C(=O)OC)Cc2ccc(C)cc2C2=C1C(=O)c1ccccc1C2=O	inactive: > 100 µM
COC(=O)/C=C\n1c(C)cc(=O)[nH]c1=O	inactive: > 100 µM
CN(C)c1ccc(C(C#N)N2CCCN(C(C#N)c3ccc(N(C)C)cc3)C2c2ccc(N(C)C)cc2)cc1 (stereo unspecified)	inactive: > 100 µM
COc1ccc(OC(=O)CC2Cc3cc(OC)c(OC)c(OC)c3-c3ccc(SC)c(=O)cc32)cc1 (stereo unspecified)	active: 0.65 µM
O=C(/C=C\c1cccc2ccccc12)c1cccs1	inactive: 14.7 µM
c1ccc2c3nnc(c2c1)SCCSCCCSCCS3	inactive: > 100 µM
Cc1ccc(S(=O)(=O)OI(O)CC(F)(F)F)cc1	inactive: > 100 µM
CC(=O)Nc1ccc(-c2nc3ccccc3s2)cc1O	inactive: 56.5 µM
N#Cc1c(N2CCN(c3ccc([N+](=O)[O-])cc3)CC2)[n+]([O-])c2ccc(-c3ccc([N+](=O)[O-])cc3)cc2[n+]1[O-]	inactive: > 100 µM

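These data come from cells grown in 96-well plates and exposed to compound for 48 hours at five concentrations. GI50 is the concentration that inhibits growth by half.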 The source made the active and inactive calls. Cut-off read from the data, not from the text of the source: active = GI50 up to about 1.1 µM and inactive = higher. Square brackets hold non-standard residues; d marks the D form. Peptide text beside a SMILES is read from it. * marks the point of attachment. Chg = N[CH](C(=O)O)C1CCCCC1; Cbz = O=C(OCc1ccccc1)*; OBn = c1ccc(CO*)cc1
